In PubChem BioAssay (Tox21):
Inconclusive results, whose numbers are uncertain, are shown with a selection of clear calls. A call without a number means that no potency is given here. Where the call is inconclusive, the potency comes from a doubtful curve fit. The source made the active and inactive calls. Calls come from the whole dose curve; as a rule, active = well fitted cell-killing curve with a large enough effect in the repeat runs; inconclusive = weak or mixed curves; inactive = no such curve, though single readings can be large or run the other way.
Potency is the fitted concentration of half-maximal effect; tags give direction and shape of the fitted curve.

Test: qHTS assay to identify small molecule antagonists of the androgen receptor (AR) signaling pathway - cell viability counter screen (AID 743033; note: nearly all actives have a fitted effect of over 45% in size)
Conditions: AR-bla HEK293 viability, CellTiter-Glo luminescence, 16 h; series mostly up to 58.5 µM
With `O=S(=O)(O)c1ccc2ccccc2c1` the Potency was inconclusive: 49.1 µM [cytotoxic, partial curve, poor fit].
In the case of `c1ccc(CCNc2nc(-c3ccccc3)cs2)cc1`, the Potency is reported as inconclusive: 4.25 µM [cytotoxic, partial curve, poor fit].
For `C1=C\CC/C=C\CC/1`, the Potency was “inactive”.
With `COc1ccccc1OC(=O)Oc1ccccc1OC` the Potency was “inactive”.
For `CC(=O)Nc1ccccc1`, the Potency was inconclusive: 22 µM [cytotoxic, single point].
With `O=S(=O)(O)NC1CCCCC1` the Potency was “inactive”.
With `CC(C)C[C@H](NC(=O)CNC(=O)[C@H](Cc1ccc(O)cc1)NC(=O)[C@H](CO)NC(=O)[C@H](Cc1c[nH]c2ccccc12)NC(=O)[C@H](Cc1cnc[nH]1)NC(=O)[C@@H]1CCC(=O)N1)C(=O)N[C@@H](CCCN=C(N)N)C(=O)N1CCC[C@H]1C(=O)NCC(N)=O` (stereo in doubt) the Potency was “inactive”.
In the case of `Cc1nc(-c2ccccn2)ncc1C(=O)Nn1cc(C)c2cc(F)ccc21`, the Potency is reported as inconclusive: 43.6 µM [cytotoxic, partial curve, poor fit].
For `CC(C)(C)C(=O)C(Oc1ccc(Cl)cc1)n1ccnc1` (stereo not drawn), the Potency was inconclusive: 0.0034 µM [cytotoxic, full curve, poor fit].
In the case of `CC1(C)S[C@@H]2[C@H](NC(=O)Cc3ccccc3)C(=O)N2[C@H]1C(=O)O` (tested in a mixture with another compound), the Potency is reported as “inactive”.
For `CN1C(=O)N(C)C(O)C1O` (stereo not drawn), the Potency was “inactive”.
With `ON=C1CCCCC1` the Potency was “inactive”.
With `CCN(Cc1ccccc1)c1ccccc1` the Potency was “inactive”.
